# Laboratory results reported in the supplement of paper PMC10037445.
# Whole data set: some 2,900 compounds, median “NF-kB SEAP reporter activity, fold change vs agonist alone” near 0.99, cut for the highest 2% near 2.6. Some of the results follow.
# How the values were obtained:
# RAW-Dual [1] = test: NF-kB SEAP reporter activity, fold change vs agonist alone; cytotoxicity flag (confluency mask): not cytotoxic; higher = enhanced NF-kB activity
# Method in brief: (§1)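 RAW-Dual macrophages (50,000 cells/well in DMEM, 384-well plates) received 50 nL of library stock by pin tool, then a PRR agonist 1 h later, and were kept at 37 °C, 5% CO2. After 20 hours, supernatant was read for IRF by QuantiLuc luminescence and for NF-κB by QuantiBlue absorbance at 620 nm. Reporter activity is fold change over agonist-alone wells. Cytotoxic wells had IncuCyte confluency below 70% of agonist controls in both mask sets.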
# RAW-Dual [2] = test: NF-kB SEAP reporter activity, fold change vs agonist alone; higher = enhanced NF-kB activity; conditions: library stock concentration (final ~1000-fold dilution): 10 mM
# Method in brief: as §1
# RAW-Dual [3] = test: NF-kB SEAP reporter activity, fold change vs agonist alone; cytotoxicity flag (confluency mask): cytotoxic (confluency <70% of control); higher = enhanced NF-kB activity
# Method in brief: as §1
# [4] = agonist: ODN 1826 (TLR9) 0.5 ug/mL
# [5] = agonist: Pam2CSK4 (TLR2/6) 0.1 ug/mL
# [6] = agonist: Pam3CSK4 (TLR2/1) 0.1 ug/mL
# [7] = cytotoxicity flag (confluency mask): not cytotoxic, agonist: Imiquimod (TLR7) […]
# [8] = cytotoxicity flag (confluency mask): not cytotoxic, agonist: MPLA (TLR4) […]
# [9] = cytotoxicity flag (confluency mask): cytotoxic (confluency <70% of control), agonist: Imiquimod (TLR7) […]
# [10] = cytotoxicity flag (confluency mask): cytotoxic (confluency <70% of control), agonist: MPLA (TLR4) […]
smiles,measurement,setting,value
CC1=NN(c2ccc(C(=O)O)cc2)C(=O)/C1=C\c1ccc(-c2cc(C)c(C)cc2[N+](=O)[O-])o1 (library stock concentration (final ~1000-fold dilution): 10 mM),NF-kB SEAP reporter activity,RAW-Dual [1]; agonist: LPS (TLR4) 0.1 ug/mL,0.424
same,NF-kB SEAP reporter activity,RAW-Dual [1]; [4],1.18
same,NF-kB SEAP reporter activity,RAW-Dual [1]; [5],1.07
same,NF-kB SEAP reporter activity,RAW-Dual [1]; [6],0.896
c1ccc(C(c2ccccc2)N2CCN(Cc3ccc4c(c3)OCO4)CC2)cc1 (library stock concentration (final ~1000-fold dilution): 10 mM),NF-kB SEAP reporter activity,RAW-Dual [1]; agonist: LPS (TLR4) 0.1 ug/mL,0.717
same,NF-kB SEAP reporter activity,RAW-Dual [1]; [4],0.728
same,NF-kB SEAP reporter activity,RAW-Dual [1]; [5],1.38
same,NF-kB SEAP reporter activity,RAW-Dual [1]; [6],0.699
c1ccc(C(c2ccccc2)N2CCN(Cc3ccc4c(c3)OCO4)CC2)cc1,NF-kB SEAP reporter activity,RAW-Dual [2]; [7],1.19
same,NF-kB SEAP reporter activity,RAW-Dual [2]; [8],0.686
CNc1ccc([N+](=O)[O-])c(Nc2ccc3[nH]ncc3c2)n1,NF-kB SEAP reporter activity,RAW-Dual [2]; [7],0.983
same,NF-kB SEAP reporter activity,RAW-Dual [2]; [8],0.764
CNc1ccc([N+](=O)[O-])c(Nc2ccc3[nH]ncc3c2)n1 (library stock concentration (final ~1000-fold dilution): 10 mM),NF-kB SEAP reporter activity,RAW-Dual [1]; agonist: LPS (TLR4) 0.1 ug/mL,0.533
same,NF-kB SEAP reporter activity,RAW-Dual [1]; [4],0.722
same,NF-kB SEAP reporter activity,RAW-Dual [1]; [5],0.2
same,NF-kB SEAP reporter activity,RAW-Dual [1]; [6],0.694
O=C(O)CCC(=O)c1ccc(-c2ccccc2)cc1 (library stock concentration (final ~1000-fold dilution): 10 mM),NF-kB SEAP reporter activity,RAW-Dual [1]; agonist: LPS (TLR4) 0.1 ug/mL,1.28
same,NF-kB SEAP reporter activity,RAW-Dual [1]; [4],1.04
same,NF-kB SEAP reporter activity,RAW-Dual [1]; [5],0.901
same,NF-kB SEAP reporter activity,RAW-Dual [1]; [6],1.19
O=C(O)CCC(=O)c1ccc(-c2ccccc2)cc1,NF-kB SEAP reporter activity,RAW-Dual [2]; [7],0.968
same,NF-kB SEAP reporter activity,RAW-Dual [2]; [8],1.04
CC1(C)CC[C@]2(NC(=O)C(C)(F)F)CC[C@]3(C)[C@H](C(=O)C=C4[C@@]5(C)C=C(C#N)C(=O)C(C)(C)[C@@H]5CC[C@]43C)[C@@H]2C1 (library stock concentration (final ~1000-fold dilution): 10 mM),NF-kB SEAP reporter activity,RAW-Dual [3]; agonist: LPS (TLR4) 0.1 ug/mL,0.315
same,NF-kB SEAP reporter activity,RAW-Dual [3]; [4],0.183
same,NF-kB SEAP reporter activity,RAW-Dual [3]; [5],0.101
same,NF-kB SEAP reporter activity,RAW-Dual [3]; [6],0.18
CC1(C)CC[C@]2(NC(=O)C(C)(F)F)CC[C@]3(C)[C@H](C(=O)C=C4[C@@]5(C)C=C(C#N)C(=O)C(C)(C)[C@@H]5CC[C@]43C)[C@@H]2C1,NF-kB SEAP reporter activity,RAW-Dual [2]; [9],0.147
same,NF-kB SEAP reporter activity,RAW-Dual [2]; [10],0.25
COc1ccc(-c2cc3nccn3c(Nc3ncccc3C(N)=O)n2)cc1OC.Cl.Cl (library stock concentration (final ~1000-fold dilution): 10 mM),NF-kB SEAP reporter activity,RAW-Dual [1]; agonist: LPS (TLR4) 0.1 ug/mL,1.18
same,NF-kB SEAP reporter activity,RAW-Dual [1]; [4],0.862
same,NF-kB SEAP reporter activity,RAW-Dual [1]; [5],0.684
same,NF-kB SEAP reporter activity,RAW-Dual [1]; [6],0.541
COc1ccc(-c2cc3nccn3c(Nc3ncccc3C(N)=O)n2)cc1OC.Cl.Cl,NF-kB SEAP reporter activity,RAW-Dual [2]; [7],1.04
same,NF-kB SEAP reporter activity,RAW-Dual [2]; [8],1.64
CCOC(=O)c1ccc(NC2CCCCC2)c(N)c1 (library stock concentration (final ~1000-fold dilution): 10 mM),NF-kB SEAP reporter activity,RAW-Dual [1]; agonist: LPS (TLR4) 0.1 ug/mL,2.07
same,NF-kB SEAP reporter activity,RAW-Dual [1]; [4],1.28
same,NF-kB SEAP reporter activity,RAW-Dual [1]; [5],0.963
same,NF-kB SEAP reporter activity,RAW-Dual [1]; [6],1.09
CCOC(=O)c1ccc(NC2CCCCC2)c(N)c1,NF-kB SEAP reporter activity,RAW-Dual [2]; [7],1.14
same,NF-kB SEAP reporter activity,RAW-Dual [2]; [8],1.57
CCOC(=O)C1=C(C)NC(C)=C(C(=O)OC)C1c1cccc(Cl)c1Cl (stereo unspecified) (library stock concentration (final ~1000-fold dilution): 10 mM),NF-kB SEAP reporter activity,RAW-Dual [1]; agonist: LPS (TLR4) 0.1 ug/mL,0.607
same,NF-kB SEAP reporter activity,RAW-Dual [1]; [4],0.648
same,NF-kB SEAP reporter activity,RAW-Dual [1]; [5],0.408
same,NF-kB SEAP reporter activity,RAW-Dual [1]; [6],0.423
CCOC(=O)C1=C(C)NC(C)=C(C(=O)OC)C1c1cccc(Cl)c1Cl (stereo unspecified),NF-kB SEAP reporter activity,RAW-Dual [2]; [7],1.53
same,NF-kB SEAP reporter activity,RAW-Dual [2]; [8],0.952
CC(OC1OCCN(Cc2n[nH]c(=O)[nH]2)C1c1ccc(F)cc1)c1cc(C(F)(F)F)cc(C(F)(F)F)c1 (stereo unspecified),NF-kB SEAP reporter activity,RAW-Dual [2]; [7],0.394
same,NF-kB SEAP reporter activity,RAW-Dual [2]; [8],0.374
CC(OC1OCCN(Cc2n[nH]c(=O)[nH]2)C1c1ccc(F)cc1)c1cc(C(F)(F)F)cc(C(F)(F)F)c1 (stereo unspecified) (library stock concentration (final ~1000-fold dilution): 10 mM),NF-kB SEAP reporter activity,RAW-Dual [1]; agonist: LPS (TLR4) 0.1 ug/mL,0.29
same,NF-kB SEAP reporter activity,RAW-Dual [1]; [4],0.233
same,NF-kB SEAP reporter activity,RAW-Dual [1]; [5],0.109
same,NF-kB SEAP reporter activity,RAW-Dual [1]; [6],0.175
Cc1cc(O)c(-c2ccc(C(C)CN(C)C)cc2)c2c1[nH]c(=O)c1sccc12.Cl.Cl (stereo unspecified) (library stock concentration (final ~1000-fold dilution): 10 mM),NF-kB SEAP reporter activity,RAW-Dual [3]; agonist: LPS (TLR4) 0.1 ug/mL,0.764
same,NF-kB SEAP reporter activity,RAW-Dual [3]; [4],0.357
same,NF-kB SEAP reporter activity,RAW-Dual [3]; [5],0.311
same,NF-kB SEAP reporter activity,RAW-Dual [3]; [6],0.482
Cc1cc(O)c(-c2ccc(C(C)CN(C)C)cc2)c2c1[nH]c(=O)c1sccc12.Cl.Cl (stereo unspecified),NF-kB SEAP reporter activity,RAW-Dual [2]; [9],1.2
same,NF-kB SEAP reporter activity,RAW-Dual [2]; [10],1.37
CN1CCN(Cc2ccc(-c3cnc4[nH]cc(-c5ccc6[nH]ccc6c5)c4c3)cc2)CC1 (library stock concentration (final ~1000-fold dilution): 10 mM),NF-kB SEAP reporter activity,RAW-Dual [1]; agonist: LPS (TLR4) 0.1 ug/mL,0.216
same,NF-kB SEAP reporter activity,RAW-Dual [1]; [4],0.181
same,NF-kB SEAP reporter activity,RAW-Dual [1]; [5],0.0629
same,NF-kB SEAP reporter activity,RAW-Dual [1]; [6],0.138
CN1CCN(Cc2ccc(-c3cnc4[nH]cc(-c5ccc6[nH]ccc6c5)c4c3)cc2)CC1,NF-kB SEAP reporter activity,RAW-Dual [2]; [7],0.132
same,NF-kB SEAP reporter activity,RAW-Dual [2]; [8],0.242
O=C(NNc1nc2cc(F)ccc2n2cccc12)c1cnccn1,NF-kB SEAP reporter activity,RAW-Dual [2]; [7],0.884
same,NF-kB SEAP reporter activity,RAW-Dual [2]; [8],0.953
O=C(NNc1nc2cc(F)ccc2n2cccc12)c1cnccn1 (library stock concentration (final ~1000-fold dilution): 10 mM),NF-kB SEAP reporter activity,RAW-Dual [1]; agonist: LPS (TLR4) 0.1 ug/mL,1.09
same,NF-kB SEAP reporter activity,RAW-Dual [1]; [4],0.874
same,NF-kB SEAP reporter activity,RAW-Dual [1]; [5],0.922
same,NF-kB SEAP reporter activity,RAW-Dual [1]; [6],0.894
CCCCCCCCCCCCCCCc1cccc(O)c1C(=O)O,NF-kB SEAP reporter activity,RAW-Dual [2]; [7],0.943
same,NF-kB SEAP reporter activity,RAW-Dual [2]; [8],0.949
CCCCCCCCCCCCCCCc1cccc(O)c1C(=O)O (library stock concentration (final ~1000-fold dilution): 10 mM),NF-kB SEAP reporter activity,RAW-Dual [1]; agonist: LPS (TLR4) 0.1 ug/mL,0.78
same,NF-kB SEAP reporter activity,RAW-Dual [1]; [4],0.942
same,NF-kB SEAP reporter activity,RAW-Dual [1]; [5],0.845
same,NF-kB SEAP reporter activity,RAW-Dual [1]; [6],0.987
